The text below walks through data of publication PMC4336329 (PLoS ONE, 2015).

The campaign covered roughly 310,000 compounds. About 14,000 (4.5%) showed an effect of 50% or more. The effect is printed as a negative number. The list shows a part of the results.
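Also: peak tail current of the secondary pulse compared with the same well before compound.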

For the assay, the target named is human ether-à-go-go-related gene (hERG) potassium channel (human, UniProt Q12809). Nature of the assay: primary screen, population patch clamp on CHO cells stably expressing hERG.
human ether-à-go-go-related gene (hERG) potassium channel, sequence (Q12809 whole entry, looked up): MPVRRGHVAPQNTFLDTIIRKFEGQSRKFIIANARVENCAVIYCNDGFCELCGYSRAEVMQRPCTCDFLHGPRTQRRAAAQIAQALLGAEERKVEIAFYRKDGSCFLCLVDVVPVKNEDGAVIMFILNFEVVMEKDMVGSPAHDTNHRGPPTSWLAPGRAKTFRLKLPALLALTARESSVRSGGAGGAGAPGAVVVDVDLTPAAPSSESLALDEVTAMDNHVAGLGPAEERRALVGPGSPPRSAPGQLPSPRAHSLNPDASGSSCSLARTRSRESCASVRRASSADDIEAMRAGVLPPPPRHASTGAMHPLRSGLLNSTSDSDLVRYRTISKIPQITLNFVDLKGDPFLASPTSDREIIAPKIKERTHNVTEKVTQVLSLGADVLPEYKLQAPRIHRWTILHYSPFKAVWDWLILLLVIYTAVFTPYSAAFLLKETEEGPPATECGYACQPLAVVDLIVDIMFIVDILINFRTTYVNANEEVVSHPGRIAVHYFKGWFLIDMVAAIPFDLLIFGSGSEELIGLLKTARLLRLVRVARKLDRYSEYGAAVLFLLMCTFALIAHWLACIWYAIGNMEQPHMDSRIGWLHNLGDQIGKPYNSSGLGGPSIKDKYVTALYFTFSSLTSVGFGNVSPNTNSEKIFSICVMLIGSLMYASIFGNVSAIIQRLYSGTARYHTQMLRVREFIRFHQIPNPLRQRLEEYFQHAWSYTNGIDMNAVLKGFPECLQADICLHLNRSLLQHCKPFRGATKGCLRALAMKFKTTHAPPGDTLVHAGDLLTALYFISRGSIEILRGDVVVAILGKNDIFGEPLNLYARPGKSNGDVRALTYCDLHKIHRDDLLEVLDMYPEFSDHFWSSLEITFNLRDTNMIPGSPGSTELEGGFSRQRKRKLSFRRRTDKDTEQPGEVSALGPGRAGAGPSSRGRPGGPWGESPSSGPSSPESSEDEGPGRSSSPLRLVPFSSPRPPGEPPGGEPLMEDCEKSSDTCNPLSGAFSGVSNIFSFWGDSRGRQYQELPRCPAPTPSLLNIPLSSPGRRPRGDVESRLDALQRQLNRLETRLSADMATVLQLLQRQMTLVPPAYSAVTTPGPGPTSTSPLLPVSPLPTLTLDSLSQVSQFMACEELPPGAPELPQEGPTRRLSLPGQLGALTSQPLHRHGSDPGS
Turning to `COc1ccc(C(=O)NCC(=O)N/N=C/C(C)=C/c2ccco2)cc1OC`, the “hERG current change (%, negative = inhibition) at 10uM” value turned out to be 6.09%. Under `COc1ccc(CCNC(=O)C(=O)NCCOc2ccccc2)cc1OC` stands -3.57%; under `CC(=O)c1cccc(OCC(=O)N2CCCc3ccccc32)c1`, -10.9%; under `CC(Sc1nc2cc(Cl)ccc2s1)C(=O)Nc1cccc(S(=O)(=O)N2CCOCC2)c1` (centres unmarked), -34.3%. The value for `Cc1ccc2nc(NC(=O)c3ccc(Br)o3)sc2c1` was 20.6%; that for `O=C(CN1CCN(Cc2ccc3c(c2)OCO3)CC1)Nc1ccc2c(c1)OCO2` was -72.5%. The value for `COc1ccc(NC(=O)C(=O)NCCN2CCN(C(=O)c3cccc(Br)c3)CC2)cc1` was -31%; that for `Cc1ccc2c(c1)-c1[nH]c(=S)ncc1CS2` was 28.2%. `CC(C)N(CC(N)=O)C(=O)Cc1coc2cc3c(cc12)CCC3`: the “hERG current change (%, negative = inhibition) at 10uM” value is reported as 2.54%.

`Cc1ccn2c(NC(=O)c3cccs3)c(-c3ccccc3)nc2c1`: the “hERG current change (%, negative = inhibition) at 10uM” value is listed as -0.701%. The value for `COc1ccccc1/C=C/C(=O)NCC(=O)N/N=C/c1ccc2c(c1)OCO2` was 1.44%; that for `Cc1cc(C)nc(NS(=O)(=O)c2ccc(NC(=O)CSc3nc4ccccc4[nH]3)cc2)n1` was -18.2%; that for `Cc1ccc(N(C(=O)c2ccccn2)C(C(=O)NC2CCCCC2)c2ccncc2)cc1` (centres unmarked) was 3.84%. Turning to `Nc1ccccc1-c1nc2ccccc2[nH]c1=O`, the “hERG current change (%, negative = inhibition) at 10uM” value is 14.8%. Consider `Clc1ccc(-n2nnnc2-c2cnc(-c3ccncc3)nc2-c2cccs2)cc1`, for which the “hERG current change (%, negative = inhibition) at 10uM” value is reported as -23.8%. Regarding `O=C(Nc1cccc(O)c1)c1ccc(NC(=O)c2cccs2)cc1`, the “hERG current change (%, negative = inhibition) at 10uM” value worked out at 12.9%. As to `CCC1(CC)C(=O)C2=C3C1[C@H](C(=O)OC)C=C(C(=O)OC)C[C@H]3[C@H]1C(=O)N(Cc3ccccc3)C(=O)[C@H]1[C@H]2C` (some centres unmarked), the “hERG current change (%, negative = inhibition) at 10uM” value is given as -17.2%. Under `COc1ccc2c(CC(=O)N3CCN(S(=O)(=O)c4ccc(F)cc4)CC3)coc2c1` stands -20.5%. On to `Cc1ccc2c(C(=O)CN3CCCC(C)C3)c(C)[nH]c2c1` (centres unmarked), for which the “hERG current change (%, negative = inhibition) at 10uM” value is given as -14.8%. The value for `C[N+](C)(C)C[C@H](O)CC(=O)[O-]` was 2.68%. The value for `O=C(COC(=O)Cc1ccc(F)cc1)NC1CCS(=O)(=O)C1` (centres unmarked) was 1.22%. Under `CCOC(=O)C[C@H]1c2cc(C(F)(F)F)ccc2S(=O)(=O)N1Cc1ccccc1` stands -34.5%; under `Cn1cc(CN2CCC(C(=O)Nc3cccc(-c4cccc(F)c4)c3)CC2)cn1`, -67.4%. With `O=C(Nc1nnc(S(=O)(=O)N2CCCCCC2)s1)c1ccc(Br)cc1`, the “hERG current change (%, negative = inhibition) at 10uM” value is recorded as -0.762%. In the case of `O=C(CN1C(=O)NC2(CCCc3ccccc32)C1=O)NCc1cccs1` (centres unmarked), the “hERG current change (%, negative = inhibition) at 10uM” value was determined as 6.2%.

As for `CCCCNC(=O)CCn1nc(-c2ccc(C)cc2)c2ccccc2c1=O`, the “hERG current change (%, negative = inhibition) at 10uM” value was -18%. Under `C=CCOC(=O)C1=C[C@@H](c2cn(C(C)=O)c3ccccc23)C[C@@H](OCCCCO)O1` stands -43.9%; under `Cc1oc2cc(Br)c(O)c(Br)c2c1C(=O)c1ccccc1`, -35%.

As for `COc1ccc(C)cc1S(=O)(=O)N1CCN(C)CC1c1ccccc1.Cl` (centres unmarked), the “hERG current change (%, negative = inhibition) at 10uM” value is reported as -8.75%. Under `Cc1ccc(NC(=O)C2CCN(S(=O)(=O)c3ccc4c(c3)NC(=O)CO4)CC2)cc1` stands -12.5%. Under `CC(C)(C)n1nc2c(c1NC(=O)c1cc(Cl)ccc1[N+](=O)[O-])CS(=O)(=O)C2` stands 9.6%. The value for `O=C(O)Cn1cc(C(=O)c2ccccc2F)c2ccccc21` was 26.7%; that for `O=S(=O)(Nc1cccc(-c2nc3cccnc3s2)c1)c1cccs1` was 10.5%. With `O=C(CCC(=O)N1CCOCC1)NCCc1ccc(Cl)cc1Cl`, the “hERG current change (%, negative = inhibition) at 10uM” value is given as -14.5%. Under `Cc1nn(-c2ccccc2)c2nc(=O)n(-c3ccccc3)cc12` stands -10.9%; under `CCOCC(O)CS(=O)Cc1ccccc1` (centres unmarked), 6.71%. As for `CCCS(=O)(=O)N1CCCC(C(=O)N2CCCCC2)C1` (centres unmarked), the “hERG current change (%, negative = inhibition) at 10uM” value was found to be 20.7%. For `CC(=O)c1cnc2c(-c3ccccc3)cnn2c1C`, the “hERG current change (%, negative = inhibition) at 10uM” value is listed as -5.87%. For `Cc1cccc(C2c3[nH]c4ccccc4c3CCN2C(=O)c2cc(-c3cccn3C)n[nH]2)n1` (centres unmarked), the “hERG current change (%, negative = inhibition) at 10uM” value is reported as 13.1%. For the molecule `CCc1cc(C(=O)N/N=C/c2ccc(O)cc2O)c2ccccc2n1`, the “hERG current change (%, negative = inhibition) at 10uM” value is 7.07%. Turning to `CN(c1ccccc1)S(=O)(=O)c1cccc(C(=O)Nc2nn[nH]n2)c1`, the “hERG current change (%, negative = inhibition) at 10uM” value is recorded as 2.37%. The value for `O=C(Nc1cc(Cl)cc(Cl)c1)c1ccc(Cn2c(=O)[nH]c3ccsc3c2=O)cc1` was 0.28%; that for `O=C(NC1CCCCC1)C1c2ccccc2C(=O)N1Cc1ccco1` (centres unmarked) was -22.9%. The value for `COc1ccc(Cl)cc1C(=O)C1CCCN(CCO)C1` (centres unmarked) was -11.2%.
